Test [1] deals with T1, Epithelial cell adhesion molecule (EpCAM) (human (endogenous in A2780, OVCAR-3, SKOV-3 and A2780cis cells)) (UniProt P16422).
T1 sequence: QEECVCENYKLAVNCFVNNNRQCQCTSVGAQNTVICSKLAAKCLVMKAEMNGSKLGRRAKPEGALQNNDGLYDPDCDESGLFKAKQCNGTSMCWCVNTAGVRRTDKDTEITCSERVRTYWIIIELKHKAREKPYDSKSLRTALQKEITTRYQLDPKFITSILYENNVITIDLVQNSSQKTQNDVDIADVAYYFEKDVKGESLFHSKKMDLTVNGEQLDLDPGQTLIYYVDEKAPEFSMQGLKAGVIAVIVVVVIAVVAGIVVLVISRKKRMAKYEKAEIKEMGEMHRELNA
The experiment in a line: co-IP; SKOV-3 cells lysed in 1% Triton X-100 buffer; lysates precipitated with antibodies to the studied molecules, western blot. Background: In western blotting, separated proteins are transferred to a membrane and probed.

Chains of the proteins cited; added tags and fusions are not shown.
UniProt O14493: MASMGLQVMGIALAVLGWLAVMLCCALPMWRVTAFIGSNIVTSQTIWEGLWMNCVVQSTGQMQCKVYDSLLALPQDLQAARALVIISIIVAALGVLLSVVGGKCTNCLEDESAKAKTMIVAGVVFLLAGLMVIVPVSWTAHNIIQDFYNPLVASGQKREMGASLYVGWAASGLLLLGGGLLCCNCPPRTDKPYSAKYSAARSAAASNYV
UniProt O15551: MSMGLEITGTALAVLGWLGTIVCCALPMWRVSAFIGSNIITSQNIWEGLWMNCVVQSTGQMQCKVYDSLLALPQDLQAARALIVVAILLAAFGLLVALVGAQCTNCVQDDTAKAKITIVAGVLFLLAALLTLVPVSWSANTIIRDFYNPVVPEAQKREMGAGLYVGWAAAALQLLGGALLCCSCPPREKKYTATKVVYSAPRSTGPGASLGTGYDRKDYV

Test [2] has as its target T2, CD82 (Tspan-27) (human (endogenous in A2780, OVCAR-3, SKOV-3 and A2780cis cells)) (UniProt P27701).
T2 sequence: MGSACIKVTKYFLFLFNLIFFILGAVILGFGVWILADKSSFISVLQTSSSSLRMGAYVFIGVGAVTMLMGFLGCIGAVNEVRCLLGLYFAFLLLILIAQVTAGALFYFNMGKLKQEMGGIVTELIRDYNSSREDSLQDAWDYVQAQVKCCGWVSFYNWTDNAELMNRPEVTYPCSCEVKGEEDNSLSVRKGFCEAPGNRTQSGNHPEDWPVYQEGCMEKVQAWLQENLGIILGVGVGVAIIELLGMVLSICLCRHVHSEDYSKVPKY
Briefly: condition: only cells treated with 50 μM 2-BP (palmitoylation inhibitor); co-IP; SKOV-3 cells treated with the palmitoylation inhibitor 2-BP (50 μM, 20 h, 37 °C), RIPA buffer; anti-CD82 or anti-claudin-7 precipitates.

In test [3] the target is T2, CD82 (Tspan-27) (human (endogenous in A2780, OVCAR-3, SKOV-3 and A2780cis cells)). The experiment in a line: cross-linking + co-IP; A2780 cells treated with the membrane-permeable cross-linker DSP (1 mM, 30 min, 37 °C), lysed in RIPA buffer; anti-CD82 or anti-claudin-7 precipitates.
In test [4] the target is T1, Epithelial cell adhesion molecule (EpCAM) (human (endogenous in A2780, OVCAR-3, SKOV-3 and A2780cis cells)). Briefly: co-IP; A2780cis (cisplatin-resistant) cells lysed in 1% Triton X-100 buffer; lysates precipitated with antibodies to the studied molecules, western blot.
Test [5] addresses T2, CD82 (Tspan-27) (human (endogenous in A2780, OVCAR-3, SKOV-3 and A2780cis cells)). Briefly: condition: only lysed in RIPA buffer after DTSSP treatment; cross-linking + co-IP; A2780 cells treated with the membrane-impermeable cross-linker DTSSP (1 mM, 30 min, 37 °C), lysed in RIPA buffer; anti-CD82 or anti-claudin-7 precipitates.
The target of test [6] is T3, claudin-7 (human (endogenous in A2780, OVCAR-3, SKOV-3 and A2780cis cells)) (UniProt O95471).
T3 sequence: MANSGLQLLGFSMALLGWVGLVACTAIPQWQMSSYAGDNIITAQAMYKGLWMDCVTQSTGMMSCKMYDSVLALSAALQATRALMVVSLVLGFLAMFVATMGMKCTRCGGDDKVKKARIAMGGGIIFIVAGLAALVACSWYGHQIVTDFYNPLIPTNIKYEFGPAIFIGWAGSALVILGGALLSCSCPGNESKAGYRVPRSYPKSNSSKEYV
Briefly: cross-linking + co-IP; OVCAR-3 cells treated with DSP or DTSSP (1 mM, 30 min, 37 °C), with or without 2-BP beforehand, lysed in RIPA buffer; anti-CD82 or anti-claudin-7 precipitates.

Test [7] deals with T3, claudin-7 (human (endogenous in A2780, OVCAR-3, SKOV-3 and A2780cis cells)). The experiment in a line: co-IP; SKOV-3 cells lysed in 1% Triton X-100 buffer; lysates precipitated with antibodies to the studied molecules, western blot.
The target of test [8] is claudin-4 (human (endogenous in A2780, OVCAR-3, SKOV-3 and A2780cis cells)) (UniProt O14493). The test is described as above.
For test [9], the target named is claudin-3 (human (endogenous in A2780, OVCAR-3 and SKOV-3 cells)) (UniProt O15551). Described as above.
In test [10] the target is T3, claudin-7 (human (endogenous in A2780, OVCAR-3, SKOV-3 and A2780cis cells)). Briefly: cross-linking + co-IP; A2780 cells treated with the membrane-permeable cross-linker DSP (1 mM, 30 min, 37 °C), lysed in RIPA buffer; anti-CD82 or anti-claudin-7 precipitates.
Test [11] concerns the target T2, CD82 (Tspan-27) (human (endogenous in A2780, OVCAR-3, SKOV-3 and A2780cis cells)). The experiment in a line: condition: only lysed in RIPA buffer, untreated or DSP-treated cells; cross-linking + co-IP; A2780 cells treated with the membrane-permeable cross-linker DSP (1 mM, 30 min, 37 °C), lysed in RIPA buffer; anti-CD82 or anti-claudin-7 precipitates.
Test [12] concerns the target T3, claudin-7 (human (endogenous in A2780, OVCAR-3, SKOV-3 and A2780cis cells)). Briefly: cross-linking + co-IP; A2780 cells treated first with 2-BP and then with DSP or DTSSP; anti-CD82 or anti-claudin-7 precipitates.
Test [13] concerns the target T2, CD82 (Tspan-27) (human (endogenous in A2780, OVCAR-3, SKOV-3 and A2780cis cells)). Briefly: cross-linking + co-IP; A2780 cells treated with the membrane-impermeable cross-linker DTSSP (1 mM, 30 min, 37 °C), lysed in RIPA buffer; anti-CD82 or anti-claudin-7 precipitates.
Test [14] addresses T3, claudin-7 (human (endogenous in A2780, OVCAR-3, SKOV-3 and A2780cis cells)). The experiment in a line: cross-linking + co-IP; SKOV-3 cells treated with DSP or DTSSP (1 mM, 30 min, 37 °C), claudin-7 precipitates also after 2-BP beforehand, lysed in RIPA buffer; anti-CD82 or anti-claudin-7 precipitates.

Results are given in words; binding and its absence hold for the method and conditions named. Binding seen in cells or lysates may run through a third protein. Some results given as binding are weak or reduced against the parent protein; the word gives no strength.

As to claudin-4 (from UniProt O14493 1-209), the binding result is “binds” in test [1]; “no binding” in test [2]; “binds” in test [3]; “binds” in [4]; “no binding” in test [5].

B1: Epithelial cell adhesion molecule (EpCAM) (protein, UniProt P16422 24-314)
chain: QEECVCENYKLAVNCFVNNNRQCQCTSVGAQNTVICSKLAAKCLVMKAEMNGSKLGRRAKPEGALQNNDGLYDPDCDESGLFKAKQCNGTSMCWCVNTAGVRRTDKDTEITCSERVRTYWIIIELKHKAREKPYDSKSLRTALQKEITTRYQLDPKFITSILYENNVITIDLVQNSSQKTQNDVDIADVAYYFEKDVKGESLFHSKKMDLTVNGEQLDLDPGQTLIYYVDEKAPEFSMQGLKAGVIAVIVVVVIAVVAGIVVLVISRKKRMAKYEKAEIKEMGEMHRELNA
Take B1: the binding entry is “binds” in [6]; “binds” in [7]; “binds” in [8]; “binds” in test [9]; “binds” in test [10]; “no binding” in test [11]. Also, the binding result in test [12], in test [13] and in [14] was “binds” each time.
